The other results are listed elsewhere or left out. The main result of the screen is listed elsewhere. These columns were measured beside it and carry no call. Most of these compounds were active or inconclusive in the main read-out, so they are no random draw. Potencies come from curve fits of mixed quality, noted in brackets.
Test: Cell-based coincidence reporter assay to measure PMP22 gene transcription in S16 Pmp22-F2sN cells - Confirmatory screen (AID 1508646)
Settings: S16 Schwann cells Pmp22-F2sN, dual luciferase, 24 h
In short: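 S16 Schwann cells carrying a bioluminescent reporter in the Pmp22 3' UTR (Pmp22-F2sN) were treated with compounds for 24 h at 37C, then lysed; FLuc and then NLuc luminescence were read sequentially with a dual-luciferase kit on a CCD imager.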

[1] = measured here: FLuc reporter channel
[2] = measured here: NLuc reporter channel
Tags give direction and shape of the fitted curve.

Structure (SMILES)	AC50 [1]	AC50 [2]
Cc1ccc(CN2C(=O)C(O)(c3c(C)[nH]c4ccccc34)c3ccccc32)cc1 (configuration not stated)	17.2 µM [falling, partial curve]	17.2 µM [falling, partial curve]
O=C(NCCSc1c(-c2ccc(Br)cc2)[nH]c2ccccc12)c1ccc(S(=O)(=O)N2CCOCC2)cc1	8.62 µM [falling, single point]	7.69 µM [falling, partial curve, poor fit]
CC(C)(C)c1ccc(C(=O)NCC(c2ccco2)S(=O)(=O)c2ccc(F)cc2)cc1 (configuration not stated)	17.2 µM [falling, partial curve]	27.3 µM [falling, partial curve]
CCCC1=Nc2cc(C(=O)NC3CCCC3)ccc2Sc2ccc(C)cc21	5.44 µM [falling, full curve]	3.43 µM [falling, full curve]
Cc1ccc(-n2nc3c(N4CCC(C(=O)NCCC(C)C)CC4)nnc(C)c3c2C)cc1	10.9 µM [falling, full curve]	21.7 µM [falling, partial curve]
COc1ccc(-n2nc3c(N4CCCC(C(=O)NCCc5ccccc5C)C4)nnc(C)c3c2C)cc1 (configuration not stated)	24.3 µM [falling, partial curve]	24.3 µM [falling, partial curve]
CCOC(=O)c1cc2c(=O)n3ccccc3nc2n(Cc2ccco2)c1=NC(=O)c1cc(C)cc(C)c1	4.32 µM [falling, full curve]	4.85 µM [falling, full curve]
Cc1[nH]c2ccccc2c1C1(O)C(=O)N(Cc2ccccc2)c2ccc(Br)cc21 (configuration not stated)	21.7 µM [falling, partial curve, poor fit]	30.6 µM [falling, partial curve]
COc1ccc(N(CC(=O)Nc2cc(Cl)ccc2C)S(=O)(=O)c2c(C)noc2C)cc1	3.85 µM [falling, full curve, poor fit]	4.32 µM [falling, full curve, poor fit]
CCOC(=O)c1c(C)[nH]c(CCC(=O)NCCCN2CCN(c3cc(Cl)ccc3C)CC2)c1C	19.3 µM [falling, partial curve]	24.3 µM [falling, partial curve]
CCc1ccc(NC(=O)Cn2c(=O)n(-c3ccc(OC)cc3)c(=O)c3ccc(C(=O)NCc4ccc(C)cc4)cc32)cc1	12.2 µM [falling, partial curve]	12.2 µM [falling, partial curve]
COc1ccc(CC(=O)Nc2sc3c(c2C(=O)Nc2cccc(C)c2)CCCCC3)cc1	24.3 µM [falling, partial curve, poor fit]	21.7 µM [falling, partial curve]
COc1ccc(-c2c(C)nn3c(N4CCN(c5ccccc5)CC4)cc(C)nc23)cc1OC	21.7 µM [falling, partial curve]	30.6 µM [falling, single point]
O=C(CCS(=O)(=O)c1nc(-c2cccs2)cc(C(F)(F)F)n1)Nc1ccc(OC(F)(F)F)cc1	6.11 µM [falling, full curve]	12.2 µM [falling, partial curve]
CCOc1ccccc1NC(=O)c1cnn2c(C(F)F)cc(-c3ccccc3)nc12	8.62 µM [falling, full curve, poor fit]	21.7 µM [falling, partial curve]
CC(C)OCCCNC(=O)CSc1c2c(nc3ccc(Cl)cc13)CCCC2	19.3 µM [falling, partial curve]	19.3 µM [falling, partial curve]
CCc1ccc(NC(=O)c2ccc3c(c2)c(C)c(C)n3Cc2ccccc2)cc1	7.69 µM [falling, partial curve, poor fit]	13.7 µM [falling, full curve, poor fit]
CCc1ccccc1NC(=O)Cn1nc(CC)n2c(cc3sccc32)c1=O	34.3 µM [falling, single point]	21.7 µM [falling, partial curve]
COc1ccc(OC)c(NC(=O)Cn2cnc3onc(-c4ccc(Cl)cc4)c3c2=O)c1	43.2 µM [falling, single point]	27.3 µM [falling, partial curve]
CCN(CC)CCOC(=O)c1ccc(NC(=O)Cn2ncc3c([nH]c4ccc(C)cc43)c2=O)cc1	12.2 µM [falling, full curve]	13.7 µM [falling, full curve]
CCc1ccc(-c2cc(C)no2)cc1S(=O)(=O)NCc1ccc(OC)cc1	1.72 µM [falling, full curve]	9.68 µM [falling, partial curve]

Structure (SMILES)	AC50 [1]	AC50 [2]
Cc1ccc2nc3c(c(Nc4ccc(C)c(C)c4)c2c1)CCC3	21.7 µM [falling, partial curve, poor fit]	17.2 µM [falling, partial curve, poor fit]
Cc1cc(C)c(NC(=O)Cn2c(=O)n(Cc3ccco3)c(=O)c3ccc(C(=O)NC4CCCC4)cc32)c(C)c1	12.2 µM [falling, full curve]	12.2 µM [falling, full curve]
CCOc1cc(C(Nc2cc(C)ccn2)c2ccc3cccnc3c2O)ccc1OC (configuration not stated)	17.2 µM [falling, partial curve]	21.7 µM [falling, partial curve]
CCCCn1c(=N)n(CCOc2ccccc2OC)c2ccccc21	24.3 µM [falling, partial curve]	30.6 µM [falling, partial curve]
Cc1ccc(C)c(NC(=O)Cn2c(=O)n(Cc3ccc4c(c3)OCO4)c(=O)c3ccc(C(=O)NC4CCCCC4)cc32)c1	17.2 µM [falling, partial curve]	19.3 µM [falling, partial curve]
O=C(Nc1ccc(F)cc1Cl)C1CCN(c2ncnc3c2nc2n3CCCCC2)CC1	9.68 µM [falling, full curve, poor fit]	13.7 µM [falling, full curve, poor fit]
CCCSc1ncc(Cl)c(C(=O)Nc2ccc(S(=O)(=O)N3CCCCC3C)cc2)n1 (configuration not stated)	21.7 µM [falling, partial curve, poor fit]	30.6 µM [falling, single point]
CC(C)CCNC(=O)CSc1c2c(nc3ccc(Cl)cc13)CCCC2	21.7 µM [falling, partial curve]	19.3 µM [falling, partial curve]
CCOC(=O)c1cccc(NC(=O)c2cc3cc4ccc(C)cc4nc3s2)c1	19.3 µM [falling, partial curve]	19.3 µM [falling, partial curve]
COc1ccc(C)cc1NS(=O)(=O)c1ccc(-c2cnc(C3CC3)o2)cc1	1.22 µM [falling, full curve, poor fit]	6.11 µM [falling, partial curve]
CSc1nc2sc3c(c2c(=O)n1-c1ccc(C)cc1)CCCC3	21.7 µM [falling, partial curve]	21.7 µM [falling, partial curve]
CC(=O)Nc1cccc(-c2nnc(SCC(=O)c3cc([N+](=O)[O-])ccc3Cl)o2)c1	17.2 µM [falling, partial curve]	19.3 µM [falling, partial curve]
CCOc1ccc(C(=O)c2cnc3ccc(Cl)cc3c2S(=O)(=O)c2ccc(C)cc2)cc1	19.3 µM [falling, partial curve]	19.3 µM [falling, partial curve]
CCC(=O)N1CCc2cc(S(=O)(=O)CCC(=O)N3CCN(c4ccc(Cl)cc4)CC3)ccc21	15.3 µM [falling, full curve, poor fit]	21.7 µM [falling, partial curve]
Cc1oc(-c2ccc(Cl)cc2)nc1CN1CCC(C(=O)NCCCN2CCN(c3cccc(Cl)c3)CC2)CC1	10.9 µM [falling, full curve]	9.68 µM [falling, full curve]
COc1ccccc1-c1cc(C(F)(F)F)nc(S(=O)(=O)CCCC(=O)Nc2ccccc2F)n1	6.11 µM [falling, full curve]	7.69 µM [falling, full curve]
O=C(CCS(=O)(=O)c1ccccc1)N(Cc1cccnc1)c1nc2c(F)cccc2s1	10.9 µM [falling, full curve]	13.7 µM [falling, partial curve]
COC(=O)c1ccccc1NC(=O)CCS(=O)(=O)c1nc(-c2ccc3c(c2)OCO3)cc(C(F)(F)F)n1	19.3 µM [falling, partial curve]	19.3 µM [falling, partial curve]
CCOc1cc(CNc2ccc(O)cc2)cc(Br)c1OCc1ccccc1	13.7 µM [falling, full curve]	15.3 µM [falling, partial curve]
CCc1nnc(NC(=O)c2nc(S(C)(=O)=O)ncc2Cl)s1	15.3 µM [falling, partial curve]	12.2 µM [falling, full curve]

Source: PubChem BioAssay (NCATS)
